The values below come from patent US20260217835A1 (published 2026).

B1: Full-length heavy chain with T394F/F405C (SEQ ID NO: 389) with light chain SEQ ID NO: 61 (antibody, human IgG1, kappa)
heavy: QVQLQESGPGLVRPSQTLSLTCTVSGYSITSDHAWSWVRQPPGRGLEWIGYISYSGITTYNPSLKSRVTMLRDTSKNQFSLRLSSVTAADTAVYYCARSLARTTAMDYWGQGSLVTVSSASTKGPSVFPLAPSSKSTSGGTAALGCLVKDYFPEPVTVSWNSGALTSGVHTFPAVLQSSGLYSLSSVVTVPSSSLGTQTYICNVNHKPSNTKVDKRV[no letters for human IgG1 Fc with T394F F405C (EU numbers)]
light: DIQMTQSPSSLSASVGDRVTITCRASQDISSYLNWYQQKPGKAPKLLIYYTSRLHSGVPSRFSGSGSGTDFTFTISSLQPEDIATYYCQQGNTLPYTFGQGTKVEIKRTVAAPSVFIFPPSDEQLKSGTASVVCLLNNFYPREAKVQWKVDNALQSGNSQESVTEQDSKDSTYSLSSTLTLSKADYEKHKVYACEVTHQGLSSPVTKSFNRGEC
notes: also called Sample No. 979
B2: Full-length heavy chain with T394F/F405T (SEQ ID NO: 401) with light chain SEQ ID NO: 61 (antibody, human IgG1, kappa)
heavy: QVQLQESGPGLVRPSQTLSLTCTVSGYSITSDHAWSWVRQPPGRGLEWIGYISYSGITTYNPSLKSRVTMLRDTSKNQFSLRLSSVTAADTAVYYCARSLARTTAMDYWGQGSLVTVSSASTKGPSVFPLAPSSKSTSGGTAALGCLVKDYFPEPVTVSWNSGALTSGVHTFPAVLQSSGLYSLSSVVTVPSSSLGTQTYICNVNHKPSNTKVDKRV[no letters for human IgG1 Fc with T394F F405T (EU numbers)]
light: B1 light
notes: also called Sample No. 991
B3: Full-length heavy chain with T394Y/F405G (SEQ ID NO: 398) with light chain SEQ ID NO: 61 (antibody, human IgG1, kappa)
heavy: QVQLQESGPGLVRPSQTLSLTCTVSGYSITSDHAWSWVRQPPGRGLEWIGYISYSGITTYNPSLKSRVTMLRDTSKNQFSLRLSSVTAADTAVYYCARSLARTTAMDYWGQGSLVTVSSASTKGPSVFPLAPSSKSTSGGTAALGCLVKDYFPEPVTVSWNSGALTSGVHTFPAVLQSSGLYSLSSVVTVPSSSLGTQTYICNVNHKPSNTKVDKRV[no letters for human IgG1 Fc with T394Y F405G (EU numbers)]
light: B1 light
notes: also called Sample No. 988
B4: Full-length heavy chain with T394W/F405C (SEQ ID NO: 396) with light chain SEQ ID NO: 61 (antibody, human IgG1, kappa)
heavy: QVQLQESGPGLVRPSQTLSLTCTVSGYSITSDHAWSWVRQPPGRGLEWIGYISYSGITTYNPSLKSRVTMLRDTSKNQFSLRLSSVTAADTAVYYCARSLARTTAMDYWGQGSLVTVSSASTKGPSVFPLAPSSKSTSGGTAALGCLVKDYFPEPVTVSWNSGALTSGVHTFPAVLQSSGLYSLSSVVTVPSSSLGTQTYICNVNHKPSNTKVDKRV[no letters for human IgG1 Fc with T394W F405C (EU numbers)]
light: B1 light
notes: also called Sample No. 600; Sample No. 986
B5: Full-length heavy chain with T394F/F405S (SEQ ID NO: 400) with light chain SEQ ID NO: 61 (antibody, human IgG1, kappa)
heavy: QVQLQESGPGLVRPSQTLSLTCTVSGYSITSDHAWSWVRQPPGRGLEWIGYISYSGITTYNPSLKSRVTMLRDTSKNQFSLRLSSVTAADTAVYYCARSLARTTAMDYWGQGSLVTVSSASTKGPSVFPLAPSSKSTSGGTAALGCLVKDYFPEPVTVSWNSGALTSGVHTFPAVLQSSGLYSLSSVVTVPSSSLGTQTYICNVNHKPSNTKVDKRV[no letters for human IgG1 Fc with T394F F405S (EU numbers)]
light: B1 light
notes: also called Sample No. 990
B6: Full-length heavy chain with T394H/F405T (SEQ ID NO: 393) with light chain SEQ ID NO: 61 (antibody, human IgG1, kappa)
heavy: QVQLQESGPGLVRPSQTLSLTCTVSGYSITSDHAWSWVRQPPGRGLEWIGYISYSGITTYNPSLKSRVTMLRDTSKNQFSLRLSSVTAADTAVYYCARSLARTTAMDYWGQGSLVTVSSASTKGPSVFPLAPSSKSTSGGTAALGCLVKDYFPEPVTVSWNSGALTSGVHTFPAVLQSSGLYSLSSVVTVPSSSLGTQTYICNVNHKPSNTKVDKRV[no letters for human IgG1 Fc with T394H F405T (EU numbers)]
light: B1 light
notes: also called Sample No. 983
B7: Full-length heavy chain with T394Y/F405S (SEQ ID NO: 399) with light chain SEQ ID NO: 61 (antibody, human IgG1, kappa)
heavy: QVQLQESGPGLVRPSQTLSLTCTVSGYSITSDHAWSWVRQPPGRGLEWIGYISYSGITTYNPSLKSRVTMLRDTSKNQFSLRLSSVTAADTAVYYCARSLARTTAMDYWGQGSLVTVSSASTKGPSVFPLAPSSKSTSGGTAALGCLVKDYFPEPVTVSWNSGALTSGVHTFPAVLQSSGLYSLSSVVTVPSSSLGTQTYICNVNHKPSNTKVDKRV[no letters for human IgG1 Fc with T394Y F405S (EU numbers)]
light: B1 light
notes: also called Sample No. 989
B8: Full-length heavy chain with T394W/F405V (SEQ ID NO: 397) with light chain SEQ ID NO: 61 (antibody, human IgG1, kappa)
heavy: QVQLQESGPGLVRPSQTLSLTCTVSGYSITSDHAWSWVRQPPGRGLEWIGYISYSGITTYNPSLKSRVTMLRDTSKNQFSLRLSSVTAADTAVYYCARSLARTTAMDYWGQGSLVTVSSASTKGPSVFPLAPSSKSTSGGTAALGCLVKDYFPEPVTVSWNSGALTSGVHTFPAVLQSSGLYSLSSVVTVPSSSLGTQTYICNVNHKPSNTKVDKRV[no letters for human IgG1 Fc with T394W F405V (EU numbers)]
light: B1 light
notes: also called Sample No. 987
B9: Full-length human IgG1 heavy chain with T394W/F405T (SEQ ID NO: 382) with light chain SEQ ID NO: 61 (antibody)
heavy: QVQLQESGPGLVRPSQTLSLTCTVSGYSITSDHAWSWVRQPPGRGLEWIGYISYSGITTYNPSLKSRVTMLRDTSKNQFSLRLSSVTAADTAVYYCARSLARTTAMDYWGQGSLVTVSSASTKGPSVFPLAPSSKSTSGGTAALGCLVKDYFPEPVTVSWNSGALTSGVHTFPAVLQSSGLYSLSSVVTVPSSSLGTQTYICNVNHKPSNTKVDKRV[no letters for human IgG1 Fc with T394W F405T (EU numbers)]
light: B1 light
notes: also called Sample No. 972
B10: Full-length human IgG1 heavy chain with T394W/F405S (SEQ ID NO: 381) with light chain SEQ ID NO: 61 (antibody)
heavy: QVQLQESGPGLVRPSQTLSLTCTVSGYSITSDHAWSWVRQPPGRGLEWIGYISYSGITTYNPSLKSRVTMLRDTSKNQFSLRLSSVTAADTAVYYCARSLARTTAMDYWGQGSLVTVSSASTKGPSVFPLAPSSKSTSGGTAALGCLVKDYFPEPVTVSWNSGALTSGVHTFPAVLQSSGLYSLSSVVTVPSSSLGTQTYICNVNHKPSNTKVDKRV[no letters for human IgG1 Fc with T394W F405S (EU numbers)]
light: B1 light
notes: also called Sample No. 971
B11: IgG1 full-length heavy chain T394W/F405A (SEQ ID NO: 19) with light chain SEQ ID NO: 61 (antibody)
heavy: QVQLQESGPGLVRPSQTLSLTCTVSGYSITSDHAWSWVRQPPGRGLEWIGYISYSGITTYNPSLKSRVTMLRDTSKNQFSLRLSSVTAADTAVYYCARSLARTTAMDYWGQGSLVTVSSASTKGPSVFPLAPSSKSTSGGTAALGCLVKDYFPEPVTVSWNSGALTSGVHTFPAVLQSSGLYSLSSVVTVPSSSLGTQTYICNVNHKPSNTKVDKRV[no letters for human IgG1 Fc with changes]
light: B1 light
notes: also called Sample No. 220

The first test addresses T1, Fc fragment of human IgG1 below the hinge region containing no modification (SEQ ID NO: 62) (human, UniProt P01857 fragment = IgG part).
T1 construct: Unmodified human IgG1 Fc fragment coexpressed with each full-length heavy chain and the light chain; it associates through its CH3 interface; also called WT-Fc fragment
Kind of test: SEC peak area ratio after coexpression of full-length heavy chain, light chain and WT Fc fragment in Expi293F.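 Note: peak area ratios come from chromatograms detected by UV absorbance at 215 nm.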
For B1, the “Heteromultimer (%)” value is 3.8%. Turning to B2, the “Heteromultimer (%)” value turned out to be 4%. The same measure, in the same setting: with B3 the figure was 2.3%. B4: the “Heteromultimer (%)” value came to 4.3%. B5: the “Heteromultimer (%)” value was found to be 3.9%. Consider B6, for which the “Heteromultimer (%)” value is 35.7%. Regarding B7, the “Heteromultimer (%)” value was found to be 1.5%. As to B8, the “Heteromultimer (%)” value stood at 1.3%.

Another test addresses T2, Fc fragment of human IgG1 below the hinge region containing no modification (SEQ ID NO: 62) (human, UniProt P01857 fragment = IgG part).
T2 construct: One Fc chain is meant as the associating unit; it pairs with itself (homo Fc fragment) or with a full-length heavy chain (heteromultimer); also called WT-Fc fragment
Kind of test: SEC peak area ratio of the heteromultimer after coexpression of full-length heavy chain, light chain and Fc fragment.
B9: the binding result was “no binding”. On to B10, for which the binding result is recorded as “no binding”.

The target in another test is T3, IgG2 Fc fragment without modification (SEQ ID NO: 103) (Homo sapiens (Human), UniProt P01859 99-324 = IgG part).
T3 construct: Fc fragment co-expressed with a full-length heavy chain and the light chain; the associating unit is one Fc chain; also called WT-IgG2 Fc fragment
T3 sequence (P01859 99-324 S257A limits assumed): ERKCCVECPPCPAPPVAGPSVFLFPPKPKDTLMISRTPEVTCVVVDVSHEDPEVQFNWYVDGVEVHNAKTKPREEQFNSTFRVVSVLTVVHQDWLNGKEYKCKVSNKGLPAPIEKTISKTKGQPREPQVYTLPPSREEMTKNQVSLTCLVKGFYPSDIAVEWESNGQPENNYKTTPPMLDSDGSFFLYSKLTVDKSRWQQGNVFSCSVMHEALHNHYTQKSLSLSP
In words: co-expression of full-length heavy chain, light chain and Fc fragment in Expi293F, affinity purification, SEC peak area ratio.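 Note: purified antibodies analysed by size exclusion chromatography with UV detection at 215 nm, each species given as share of total chromatogram peak area.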
With B11, the “Heteromultimer (%)” value came out at 0%.
